Among the data in the antibiotic and cytotoxicity screens of Wong et al. (2023) are cytotoxicity call values, retold here.

This is one part of the list.

In this assay the test system is HSkMC (human skeletal muscle cells). Nature of the assay: cytotoxicity call (relative viability < 0.9). The settings on record: 10 µM.
As to `Cc1ccc(S(=O)(=O)Nc2ccc3c(c2)C(=O)N([C@H](C)CO)C[C@@H](C)[C@H](CN(C)C(=O)Nc2ccc(C(F)(F)F)cc2)O3)cc1`, the cytotoxicity call is “inactive”.

For the compound `COc1ccc2c3c([nH]c2c1)[C@H](CO)N(C[C@]13CN(C1)S(=O)(=O)c1cn(cn1)C)C(=O)Nc1ccc(cc1)F`, the cytotoxicity call is “inactive”.

Take `CN1C[C@@H](O)COC[C@@H]2O[C@H](CC(=O)N3CCN(c4ccccc4)CC3)CC[C@H]21`: the cytotoxicity call was “inactive”.

In the case of `C[C@H](CO)N1C[C@H](C)[C@@H](CN(C)C(=O)Nc2ccccc2)Oc2ccc(NS(C)(=O)=O)cc2C1=O`, the cytotoxicity call is “inactive”.

Turning to `C[C@H](CO)N1C[C@H](C)[C@@H](CN(C)S(=O)(=O)c2ccc(Cl)cc2)Oc2ccc(NC(=O)c3ccncc3)cc2CC1=O`, the cytotoxicity call is “inactive”.

Take `Cn1c(=O)c2cn3ncccc3c2n(C)c1=O`: the cytotoxicity call is “inactive”.

Turning to `C[C@@H]1CN([C@@H](C)CO)C(=O)c2cccc(NC(=O)C3CCCCC3)c2O[C@@H]1CN(C)Cc1ccc(C(=O)Nc2ccccc2N)cc1`, the cytotoxicity call is “inactive”.

Take `C[C@@H]1CN([C@H](C)CO)C(=O)c2cc(NC(=O)NC3CCCCC3)ccc2O[C@@H](C)CCCCO[C@H]1CN(C)C(=O)NC1CCCCC1`: the cytotoxicity call is “inactive”.

For `CSCC[C@@H](N)C(=O)O`, the cytotoxicity call is “inactive”.

`CNC(=O)[C@H]1O[C@H](n2cnc3c(NCc4cccc(I)c4)ncnc32)[C@@H](O)[C@@H]1O`: the cytotoxicity call was “inactive”.

For `C[C@H](CO)N1C[C@H](C)[C@H](CN(C)C(=O)c2ccccc2)OCCCC[C@H](C)Oc2ccc(NC(=O)Nc3ccc(F)cc3)cc2C1=O`, the cytotoxicity call was “inactive”.

Take `C[C@@H]1CCCCO[C@H](CN(C)Cc2ccccc2)[C@@H](C)CN([C@H](C)CO)C(=O)c2cc(NC(=O)C3CCCCC3)ccc2O1`: the cytotoxicity call is “inactive”.

As to `CC(C)NC(=O)N(C)C[C@@H]1OCc2cn(nn2)CCCC(=O)N([C@@H](C)CO)C[C@@H]1C`, the cytotoxicity call is “inactive”.

For the compound `C[C@H]1CCCCO[C@@H](CN(C)Cc2ccncc2)[C@@H](C)CN([C@@H](C)CO)C(=O)c2cc(NC(=O)Nc3cccc4ccccc34)ccc2O1`, the cytotoxicity call was “inactive”.

Regarding `Cc1cc(N)no1`, the cytotoxicity call is “inactive”.

As for `C[C@@H]1CN([C@H](C)CO)C(=O)c2cc(NS(=O)(=O)c3cn(C)cn3)ccc2O[C@H]1CN(C)S(=O)(=O)c1cccs1`, the cytotoxicity call is “inactive”.

As for `C[C@H](CO)N1C[C@H](C)[C@H](CN(C)Cc2ccc(C(=O)O)cc2)OCCCC[C@H](C)Oc2ccc(NC(=O)NC3CCCCC3)cc2C1=O`, the cytotoxicity call is “inactive”.

Consider `C[C@H]1CN([C@@H](C)CO)C(=O)c2cccc(NC(=O)c3cnccn3)c2O[C@@H]1CN(C)S(=O)(=O)c1ccc(F)cc1`, for which the cytotoxicity call is “inactive”.

`C[C@H]1CN([C@@H](C)CO)C(=O)c2cccc(NC(=O)c3ccc(-c4nccs4)cc3)c2O[C@@H]1CN(C)Cc1ccc(C(=O)Nc2ccccc2N)cc1`: the cytotoxicity call was “inactive”.

Regarding `C=CC1(C)CC(=O)C2(O)C(C)(O1)C(OC(C)=O)C(O)C1C(C)(C)CCC(O)C12C` (stereo not given), the cytotoxicity call is “inactive”.

Consider `Cc1cc(-c2ccccc2)nc(-c2ccccc2)c1C`, for which the cytotoxicity call is “inactive”.

Turning to `CCN(CC)c1ncc(C#N)c(N)n1`, the cytotoxicity call was “inactive”.

For the compound `C[C@H](CO)N1C[C@H](C)[C@H](CN(C)C(=O)Nc2ccc(F)cc2)Oc2ccc(NC(=O)Cn3cnnn3)cc2C1=O`, the cytotoxicity call was “inactive”.

For `Cc1ccc(S(=O)(=O)N(C)C[C@H]2OCCCC[C@H](C)Oc3ccc(NS(=O)(=O)c4ccc(Cl)cc4)cc3C(=O)N([C@H](C)CO)C[C@@H]2C)cc1`, the cytotoxicity call is “inactive”.

In the case of `C[C@H](CO)N1C[C@H](C)[C@H](CN(C)C(=O)Nc2ccc(C(F)(F)F)cc2)Oc2ccc(NC(=O)Cc3ccccc3)cc2C1=O`, the cytotoxicity call is “inactive”.

As for `C[C@@H]1CCCCO[C@H](CN(C)Cc2ccc(C(=O)O)cc2)[C@H](C)CN([C@@H](C)CO)C(=O)c2cc(NS(=O)(=O)c3ccc(F)cc3)ccc2O1`, the cytotoxicity call is “inactive”.

As to `CC(C)NC(=O)Nc1cccc2c1O[C@@H](CN(C)S(=O)(=O)c1ccc(F)cc1)[C@@H](C)CN([C@@H](C)CO)C2=O`, the cytotoxicity call was “inactive”.

In the case of `COc1ccc(S(=O)(=O)N2C[C@H](O)COC[C@@H]3O[C@@H](CC(=O)NCCCN(C)C)CC[C@H]32)cc1`, the cytotoxicity call was “inactive”.

For the compound `O=C(C[C@H]1CC[C@H]2[C@@H](COC[C@@H](O)CN2S(=O)(=O)c2ccccc2Cl)O1)NCCc1ccncc1`, the cytotoxicity call is “inactive”.

As for `O=S(=O)(NCCN(C/C=C/c1ccc(F)cc1)C/C=C/c1ccc(F)cc1)c1cccc2cnccc12`, the cytotoxicity call is “inactive”.

Regarding `CCCCCCC#C[Si](O[C@H](c1ccccc1)c1cn([C@H](CO)Cc2ccccc2)nn1)(C(C)C)C(C)C`, the cytotoxicity call was “inactive”.

As to `Cc1noc(C)c1NC(=O)N(C)C[C@H]1Oc2ccc(NC(=O)CCN3CCOCC3)cc2CC(=O)N([C@H](C)CO)C[C@@H]1C`, the cytotoxicity call was “inactive”.

Regarding `C[C@H](CO)N1C[C@H](C)[C@H](CN(C)C(=O)C2CC2)Oc2cc(-c3ccc(C(=O)N(C)C)cc3)ccc2S1(=O)=O`, the cytotoxicity call is “inactive”.

Take `C/C=C/c1ccc2c(c1)O[C@H](CN(C)Cc1ccc(C(=O)O)cc1)[C@H](C)CN([C@@H](C)CO)S2(=O)=O`: the cytotoxicity call is “inactive”.

On to `C[C@@H]1CCCCO[C@@H](CN(C)C(=O)CCC(F)(F)F)[C@H](C)CN([C@@H](C)CO)C(=O)c2cc(NC(=O)CCC(F)(F)F)ccc2O1`, for which the cytotoxicity call was “inactive”.

Regarding `COc1ccc2c(c1)c(CC(=O)O)c(C)n2C(=O)c1ccc(Cl)cc1`, the cytotoxicity call was “inactive”.

On to `C[C@H]1CN([C@@H](C)CO)C(=O)c2cccc(NC(=O)Nc3ccccc3)c2O[C@H]1CN(C)C(=O)Nc1cccc2ccccc12`, for which the cytotoxicity call is “inactive”.

On to `Cc1noc(C)c1NC(=O)Nc1ccc2c(c1)CC(=O)N([C@@H](C)CO)C[C@H](C)[C@H](CN(C)S(=O)(=O)c1cn(C)cn1)O2`, for which the cytotoxicity call was “inactive”.

As for `C[C@H]1CN([C@@H](C)CO)C(=O)c2c(c3ccccc3n2C)-c2ccccc2CO[C@H]1CN(C)Cc1ccc(Cl)c(Cl)c1`, the cytotoxicity call is “inactive”.

With `Cc1ccc(S(=O)(=O)N(C)C[C@@H]2Oc3c(NC(=O)Nc4cccc5ccccc45)cccc3C(=O)N([C@@H](C)CO)C[C@H]2C)cc1`, the cytotoxicity call was “inactive”.
